# Assay results taken from PubChem BioAssay AID1030 (National Center for Advancing Translational Sciences (NCATS), 2008).
# The campaign covered roughly 220,000 compounds. About 16,000 (7.3%) were called active. Inconclusive results, whose numbers are uncertain, are shown with a selection of clear calls. Calls come from the whole dose curve; as a rule, active = well fitted inhibition curve with a large enough effect (not every such curve was filed as active); inconclusive = small, poorly fitted or top-dose-only effect, or another doubt; inactive = no such curve, though single readings can be large or run the other way. Potencies of inconclusive entries are left out as doubtful fits.
# Target: Aldehyde dehydrogenase 1A1 (Homo sapiens) (UniProt P00352)
# Assay: qHTS Assay for Inhibitors of Aldehyde Dehydrogenase 1 (ALDH1A1)
# Settings: Purified ALDH1A1, NADH fluorescence, propionaldehyde substrate; series mostly up to 75.3 µM
# Potency is the fitted concentration of half-maximal effect; tags give direction and shape of the fitted curve.
# Sequence of UniProt P00352 (P00352 whole entry, looked up): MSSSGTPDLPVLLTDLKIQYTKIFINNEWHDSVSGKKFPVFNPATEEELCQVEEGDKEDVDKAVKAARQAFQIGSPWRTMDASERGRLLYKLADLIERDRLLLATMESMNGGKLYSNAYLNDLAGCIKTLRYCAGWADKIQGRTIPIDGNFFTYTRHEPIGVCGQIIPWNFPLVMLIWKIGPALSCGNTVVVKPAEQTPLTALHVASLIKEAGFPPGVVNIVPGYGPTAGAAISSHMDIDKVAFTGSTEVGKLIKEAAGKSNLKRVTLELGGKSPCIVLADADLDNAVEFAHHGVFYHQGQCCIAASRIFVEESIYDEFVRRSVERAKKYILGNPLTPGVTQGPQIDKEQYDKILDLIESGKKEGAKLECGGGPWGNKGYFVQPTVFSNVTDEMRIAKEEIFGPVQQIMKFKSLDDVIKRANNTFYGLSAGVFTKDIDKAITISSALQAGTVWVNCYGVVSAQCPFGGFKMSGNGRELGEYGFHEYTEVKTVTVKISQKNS
row,SMILES,Potency
1,COc1ccc(S(=O)(=O)Nc2ccc(S(=O)(=O)N3CCCCC3)cc2)cc1OC,active: 0.562 µM
2,COCCNc1nc2c(c(=O)n(C)c(=O)n2C)n1Cc1cccc(C)c1,inactive
3,Cc1ccc(C(=O)OCC(=O)NCc2cccs2)cc1S(=O)(=O)N1CCOCC1,"inconclusive [inhibitor, single point]"
4,CC(C)N1CCC(NC(=O)Nc2ccccc2)CC1,"inconclusive [inhibitor, single point]"
5,CSc1n[nH]c2nc3c(c(=O)n12)C1(CCCCC1)Cc1ccccc1-3,"inconclusive [inhibitor, partial curve]"
6,Cc1ccc(NCCCCO)cc1C,"inconclusive [inhibitor, single point]"
7,C/C(=N\NC(=O)Cc1cccn1C)c1ccc2ccccc2c1,"inconclusive [inhibitor, single point]"
8,COc1ccc(NC(=O)CNCCC2=CCCCC2)cc1,"inconclusive [inhibitor, partial curve]"
9,CC(=O)c1c(C)[nH]c(C(=O)CN2C(=O)NC(C)(CCC(C)C)C2=O)c1C (centres undefined),inactive
10,COc1cccc(C2=NOC(C(=O)N3CCN(c4ccccc4)CC3)C2)c1OC (centres undefined),"inconclusive [inhibitor, single point]"
11,Cn1c(SCC(=O)Nc2ccc3nc(SCC(=O)N4CCCC4)sc3c2)nnc1-c1ccccc1,active: 22.4 µM
12,Cc1ccc(N2C(=O)c3ccc(C(=O)N4CCOCC4)cc3C2=O)cc1C,"inconclusive [inhibitor, single point]"
13,Cc1ccc(-c2nnn(CC(=O)N(C)C3CCCCC3)n2)o1,inactive
14,Cc1cc(Cl)ccc1NC(=O)CSc1nnc(-c2ccncc2)n1Cc1ccco1,"inconclusive [inhibitor, single point]"
15,Cc1nnc(SCC(=O)N2CCCCCC2)n(N)c1=O,"inconclusive [inhibitor, single point]"
16,CCS(=O)(=O)NCCNc1ccc([N+](=O)[O-])cc1,inactive
17,C/C(=N\NC(=O)c1cc(C2CC2)nc2ccccc12)c1ccc(C)s1,"inconclusive [inhibitor, single point]"
18,CCCC(=O)OCCNc1cc(Sc2nc3ccccc3[nH]2)c2nonc2c1[N+](=O)[O-],active: 7.08 µM
19,COc1ccc(OC)c(-c2cc(C(=O)N3CCc4ccccc4C3)no2)c1,"inconclusive [inhibitor, single point]"
20,CN1C(=O)CC(N2CCN(c3ccccn3)CC2)C1=O (centres undefined),inactive
21,COc1ccc(C(=O)Nc2ccccc2C(=O)NC(Cc2c[nH]c3ccccc23)C(=O)O)cc1 (centres undefined),inactive
22,CCOc1cc(CNc2ccc(O)cc2)cc(Br)c1OCc1ccccc1F,active: 28.2 µM
23,Cc1ccc(C2C(C#N)=C(N)Oc3c2oc(CO)cc3=O)o1 (centres undefined),"inconclusive [inhibitor, single point]"
24,O=C(/C(=C/O)N=Nc1ccccc1)c1ccncc1,active: 1.26 µM
25,O=[N+]([O-])c1ccc(/C=N/Nc2nc(N3CCOCC3)nc(N3CCOCC3)n2)cc1,inactive
26,CCOc1cccc(C=Nc2cc(C)cc(C)c2O)c1O,active: 22.4 µM
27,CCCOc1ccccc1NC(=O)/C=C/C(N)=O,"inconclusive [inhibitor, partial curve]"

row,SMILES,Potency
1,Cc1ccc(C(=O)CNc2ccc(Cl)cc2)cc1,active: 10 µM
2,CC(=O)OC1CCC2(C)C(CCC3(C)C2C(=O)C=C2C4CC(C)(C(=O)OCCN5CCCCC5)CCC4(C)CCC23C)C1(C)C (centres undefined),inactive
3,O=C(Nc1ccncc1)c1cc2ccccc2o1,inactive
4,Cc1ccc(S(=O)(=O)n2nc(-c3ccc(Cl)cc3)nc2NCc2ccco2)cc1,active: 3.55 µM
5,CCSc1ccc2cc(OC)ccc2[n+]1CC,"inconclusive [inhibitor, single point]"
6,CC1CCN(C(=O)c2ccc(S(=O)(=O)Cc3ccccc3F)c([N+](=O)[O-])c2)CC1,"inconclusive [inhibitor, partial curve]"
7,Cc1cc(-c2ccccc2)nc(N(C)NC(=O)c2c(F)cccc2F)c1S(C)(=O)=O,"inconclusive [inhibitor, single point]"
8,CN(C)c1ccc(/C=N/n2c(COc3ccccc3)n[nH]c2=S)cc1,active: 25.1 µM
9,N#Cc1c(Cl)nc(N/N=C/c2ccccc2)c(Cl)c1Cl,inactive
10,COC(=O)c1cc(COC(=O)c2nc3nccc(C)n3n2)oc1C,"inconclusive [inhibitor, single point]"
11,C=CCN(C(=O)CNC(=O)c1cccs1)C(C(=O)NC(C)(C)C)c1ccccc1 (centres undefined),inactive
12,CCCn1c(SCC(=O)N2c3ccccc3Sc3ccccc32)nc2c1c(=O)n(C)c(=O)n2C,"inconclusive [inhibitor, single point]"
13,O=C1c2ccccc2S(=O)(=O)N1CCOc1ccc(F)cc1,inactive
14,Cc1ccc(-c2csc3n[nH]c(=S)n23)cc1,"inconclusive [inhibitor, single point]"
15,COC(=O)Cn1c(=NC(=O)c2sc3ccccc3c2Cl)sc2cc(S(N)(=O)=O)ccc21,"inconclusive [inhibitor, partial curve]"
16,CC1=Nc2ccccc2N=C(NC(=O)CN2CCN(c3ccccc3)CC2)C1c1ccccc1 (centres undefined),active: 0.891 µM
17,CCCCNC(=O)COC(=O)c1cc(C)oc1C,inactive
18,COCC(=O)Nc1nnc(COc2ccccc2)s1,inactive
19,COc1ccc(-c2csc(N(CC3CCCO3)C(=O)c3ccc(C)cc3)n2)cc1 (centres undefined),"inconclusive [inhibitor, single point]"
20,CCn1c(C)cc(/C=C2/SC(=S)NC2=O)c1C,"inconclusive [inhibitor, single point]"
21,Cc1ccc(-c2ccc(CCC(=O)O)n2CC(=O)O)cc1,"inconclusive [inhibitor, partial curve]"
22,O=C(Nc1ccncc1)c1ccc2c(c1)S(=O)(=O)c1ccccc1C2=O,"inconclusive [inhibitor, full curve]"
23,Clc1ccc(-c2csc(Nc3ccccc3)[n+]2Cc2ccco2)c(Cl)c1,active: 17.8 µM
24,COc1ccc(C(=O)NCc2ccc3c(c2)OCO3)cc1S(=O)(=O)N(C)Cc1ccccc1,"inconclusive [inhibitor, single point]"
25,O=C(Cn1c(NCCCO)nc2ccccc21)c1cccc(Br)c1,active: 28.2 µM
26,Cn1c(SCC(=O)Nc2ccc3cn[nH]c3c2)nnc1-c1cnccn1,inactive
27,CCSc1nc(O)c(Cc2ccccc2)c(=O)[nH]1,inactive

row,SMILES,Potency
1,NC(=S)NNc1cccc2cccnc12,active: 3.55 µM
2,Cc1cc(NC(=O)c2ccc([N+](=O)[O-])cc2)n(C)n1,inactive
3,CS(=O)(=O)N(CC(=O)Nc1cccnc1)c1ccc2c(c1)OCO2,inactive
4,COc1cc(OC)c(CNC2CCCCCC2)cc1Br,active: 7.94 µM
5,Cc1nc(Oc2ccccc2)c2ccccc2n1,inactive
6,O=C(CN1CCOCC1)Nc1ccc(Oc2ccccc2)cc1,"inconclusive [inhibitor, single point]"
7,Cc1ccc(-n2c(Cl)c(Cl)[nH]c(=O)c2=O)cc1,"inconclusive [inhibitor, single point]"
8,COc1ccc(C2=CC(c3ccc(Cl)cc3)n3cnnc3N2)cc1OC (centres undefined),"inconclusive [inhibitor, partial curve]"
9,COc1ccccc1/C=C/C(=O)Nc1ccc2c(c1)CCC2,inactive
10,CCn1c(C)nc2cc(C(=O)NNC(=S)Nc3ccccc3Cl)ccc21,active: 31.6 µM
11,CCN(CC)S(=O)(=O)c1ccc(C)c(NC(=O)COC(=O)[C@@H]2CCCN2C(=O)c2cccs2)c1,"inconclusive [inhibitor, single point]"
12,O=[N+]([O-])c1cc(-c2n(-c3ccccn3)c3ccccc3[n+]2-c2ccccn2)ccc1Cl,"inconclusive [inhibitor, single point]"
13,COc1cc(/C=N/NC(=O)c2ccc(Cl)c(S(N)(=O)=O)c2)ccc1OCC(N)=O,inactive
14,O=C(Oc1csc(=S)n1C(=O)c1ccccc1)c1ccccc1,active: 3.16 µM
15,CCOC(=O)C1(CC2CCCCO2)CCN(S(=O)(=O)c2ccc(C)s2)CC1 (centres undefined),active: 20 µM
16,O=[N+]([O-])c1ccc(NCCO)c(OCCO)c1,inactive
17,COc1ccc(C(C)C)cc1S(=O)(=O)N1CC(C)OC(C)C1 (centres undefined),"inconclusive [inhibitor, single point]"
18,O=C(c1ccco1)N1CCN(C(c2ccccc2Cl)c2nnnn2Cc2cccs2)CC1 (centres undefined),active: 12.6 µM
19,CN1CCN(c2cc(N3CCc4ccccc4C3)c(F)cc2[N+](=O)[O-])CC1,inactive
20,COc1ccccc1OCCCCOc1ccccc1C(C)=O,inactive
21,CCOc1ccc(NC(=O)c2oc3ccccc3c2NC(=O)CC)cc1,"inconclusive [inhibitor, single point]"
22,Nc1ncnc2nc(SCC(=O)N3CCN(c4ccccc4)CC3)[nH]c12,"inconclusive [inhibitor, single point]"
23,Oc1c(N=NC(=S)Nc2ccccc2F)c2ccccc2n1Cc1ccccc1,active: 20 µM
24,CCCCCCN1CC(O)=C(c2nc3ccccc3[nH]2)C1=N,inactive
25,Cc1cc(/C=N\NC(=O)CC(=O)NC2CCCCC2)c(C)n1-c1cccc(Cl)c1Cl,"inconclusive [inhibitor, single point]"
